# Data as given in PubChem BioAssay AID624417 (National Center for Advancing Translational Sciences (NCATS), 2012).
# In all, about 410,000 compounds went through this assay and about 6,400 (1.6%) were called active. Inconclusive means that the source gave no clear call. Such entries were picked first, then a sample of the others. Calls come from the whole dose curve; as a rule, active = well fitted inhibition curve with a large enough effect; inconclusive = small, poorly fitted or top-dose-only effect; inactive = no such curve, though single readings can be large or run the other way. Potencies of inconclusive entries are left out as doubtful fits.
# Target: Glucagon-like peptide 1 receptor (Homo sapiens) (UniProt P43220)
# Assay: qHTS of GLP-1 Receptor Inverse Agonists (Inhibition Mode); note: nearly all actives have a fitted effect of over 55% in size
# Conditions: HEK293 GLP-1R CRE-luciferase, luminescence, 24 h, GLP-1R form is constitutively active; activity change, negative = inhibition: at 38.3 µM (top of the series) unless noted
# Outline: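 HEK293 cells stably co-expressing a cAMP-responsive luciferase reporter and constitutively active GLP-1R were seeded, incubated 12 h, then exposed to compounds for 24 h at 37 C. Luminescence was read 12 min after detection reagent; inverse agonists lower signal.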
# % is set by controls: 0 for no effect and ±100 for the full control effect; potency is the fitted concentration of half-maximal effect; tags give direction and shape of the fitted curve.
# UniProt P43220, sequence (P43220 whole entry, looked up): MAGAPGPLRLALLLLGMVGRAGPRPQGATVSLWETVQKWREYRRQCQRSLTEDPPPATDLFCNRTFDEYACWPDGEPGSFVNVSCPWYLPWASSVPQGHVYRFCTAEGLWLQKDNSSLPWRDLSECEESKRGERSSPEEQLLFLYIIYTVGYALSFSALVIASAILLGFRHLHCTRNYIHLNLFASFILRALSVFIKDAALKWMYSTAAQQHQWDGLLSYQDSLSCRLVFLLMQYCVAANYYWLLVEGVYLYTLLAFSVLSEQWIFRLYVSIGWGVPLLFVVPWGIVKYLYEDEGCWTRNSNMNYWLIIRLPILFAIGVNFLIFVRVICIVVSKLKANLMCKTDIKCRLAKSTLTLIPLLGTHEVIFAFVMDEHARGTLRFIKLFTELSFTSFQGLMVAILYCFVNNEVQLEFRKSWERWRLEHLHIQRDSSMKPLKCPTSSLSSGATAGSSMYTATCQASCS
Structure (SMILES),Potency,"activity change, negative = inhibition"
COc1ccccc1N1CCN(S(=O)(=O)CCNC(=O)C23CC4CC(CC(C4)C2)C3)CC1,"inconclusive [inhibitor, single point]",
COc1ccccc1CNC(=O)Cn1c(=O)ccc2cc(S(=O)(=O)N3CCCC3)ccc21,,inactive: 8.87%
Cc1nn(CC2CC2)c(=O)n1-c1ccc(Oc2ccccc2)cc1,"inconclusive [inhibitor, single point]",
CNCC(O)CN(c1ccccc1)c1ccccc1 (stereo not given),active: 6.31 µM,
CCOc1ccc(N(C)S(=O)(=O)c2cc(-c3cc(C)no3)ccc2C)cc1,"inconclusive [inhibitor, single point]",
CCOc1ccc(N(CC)S(=O)(=O)N2CCCC(C(=O)NCCc3ccccc3OC)C2)cc1 (stereo not given),"inconclusive [inhibitor, partial curve, poor fit]",
COc1cccc(C(=O)OCC(=O)c2ccc(Br)s2)c1,"inconclusive [inhibitor, single point]",
Oc1ccc(CN2CCC(Cc3ccccc3)CC2)c2cccnc12,"inconclusive [inhibitor, full curve, poor fit]",
Cc1cccc(N2CCN(CC(=O)N(C)Cc3ccccc3)CC2C)c1 (stereo not given),"inconclusive [inhibitor, partial curve, poor fit]",
Cc1cccc(Oc2coc3cc(OCC(=O)NC4CCCCC4)ccc3c2=O)c1,,inactive: -24.4%
Cc1ccc(C)c(NS(=O)(=O)c2ccc(-c3coc(C)n3)cc2)c1,"inconclusive [inhibitor, single point]",
CCOCN(C(=O)Cn1cnc2cc(C)c(C)cc21)c1c(C)cccc1CC,"inconclusive [inhibitor, partial curve, poor fit]",
COc1ccc(NC(=O)CN(C)C(=O)c2cc(-c3ccc(Cl)cc3)nc3ccccc23)cc1,"inconclusive [inhibitor, partial curve, poor fit]",
O=C(NCc1ccncc1)c1ccc(-c2ccc(F)c(F)c2)c2ccoc12,"inconclusive [inhibitor, partial curve, poor fit]",
CN(C)c1cccc(C(=O)NC2CCCc3ccccc32)c1 (stereo not given),"inconclusive [inhibitor, partial curve, poor fit]",
CN1CCN(S(=O)(=O)c2ccc(N3CCN(c4ccccc4O)CC3)c([N+](=O)[O-])c2)CC1,active: 10 µM,
COc1ccc(C(=O)NCC(c2ccc3c(c2)OCO3)N2CCN(c3ccc(F)cc3)CC2)cc1 (stereo not given),"inconclusive [inhibitor, single point]",
c1ccc2c(C3=NNC(=NC4CCCCC4)SC3)c[nH]c2c1,"inconclusive [inhibitor, single point]",
CN(C(=O)c1cccc(OC2CCN(S(=O)(=O)N(C)C)CC2)c1)C1CCOC1 (stereo not given),,inactive: 20.4%
O=C(c1ccc(F)c(S(=O)(=O)N2CCOCC2)c1)N(CCc1ccccc1)Cc1ccccc1,"inconclusive [inhibitor, partial curve, poor fit]",

Structure (SMILES),Potency,"activity change, negative = inhibition"
Cc1ccc(N(CC(C)C)S(=O)(=O)c2nnc(NC(=O)c3cccs3)s2)cc1,"inconclusive [inhibitor, partial curve, poor fit]",
O=C(NC(=S)Nc1ccc(-c2ccccc2)cc1)c1ccccc1,"inconclusive [inhibitor, single point]",
O=C(CSc1nnc(-c2ccc(Br)cc2)n1-c1ccccc1)c1ccccc1,,inactive: 5.88%
CCOC(=O)C1CCN(C(=O)COc2cc(C)c(Br)c(C)c2)CC1,"inconclusive [inhibitor, partial curve, poor fit]",
COc1ccc(NC(=O)C(=O)NCC2(c3ccccc3)CCCC2)c(OC)c1,"inconclusive [inhibitor, full curve, poor fit]",
COCCNc1nc(NCc2cc(-c3ccc(OC)cc3)no2)c2sccc2n1,"inconclusive [inhibitor, partial curve, poor fit]",
O=C(COc1ccccc1C(=O)O)NC1CCCc2ccccc21 (stereo not given),,inactive: 1.11% [at 7.66 µM]
N=c1c(C(=O)NC2CCCCC2)cc2c(=O)n3ccccc3nc2n1CCc1ccccc1,,inactive: 24.5%
C=CCn1c(C)csc1=Nc1ccc(C(C)=O)cc1,"inconclusive [inhibitor, partial curve, poor fit]",
Cc1cccc(NS(=O)(=O)c2cccc(C(=O)NCC(c3ccc(F)cc3)N3CCOCC3)c2)c1 (stereo not given),"inconclusive [inhibitor, single point]",
COc1ccc(/C=C/C(=O)Nc2cc(C)nn2-c2nc3ccccc3n2Cc2cccc([N+](=O)[O-])c2)cc1,,inactive: 4.12%
COc1cc(CNC(C)(C)C)cc(Br)c1OCc1cccs1,"inconclusive [inhibitor, partial curve, poor fit]",
CCCC/C=C/C(NC(=O)c1ccc(C(=O)OC)cc1)c1ccccc1 (stereo not given),"inconclusive [inhibitor, single point]",
O=C(NC1CCCCCCC1)c1ccc2c(c1)OCO2,"inconclusive [inhibitor, single point]",
CN(C)CCCNS(=O)(=O)c1cc(Cl)c(Cl)cc1Cl,"inconclusive [inhibitor, partial curve, poor fit]",
Cc1ccc2c(c1)/C(=C/c1ccc(F)cc1)C(=O)N2,"inconclusive [inhibitor, partial curve, poor fit]",
Fc1ccc(Nc2nc(Nc3ccc(F)cc3)nc(N3CCOCC3)n2)cc1,"inconclusive [inhibitor, full curve, poor fit]",
CCn1c(CSc2nc3ccccc3[nH]2)nc2cc(C(=O)O)ccc21,,inactive: 0%
COc1ccc(-n2ncc(C(C)NS(=O)(=O)c3cc(F)ccc3C)c2C)cc1 (stereo not given),"inconclusive [inhibitor, partial curve]",
COc1ccc(CN2CCC(C(=O)Nc3ccc(Oc4cccnc4)cc3)CC2)cc1,"inconclusive [inhibitor, single point]",
